Here are results for 84 compounds from ChEMBL document CHEMBL4888484, “Replenishing the malaria drug discovery pipeline: Screening and hit evaluation of the MMV Hit Generation Library 1 (HGL1) against asexual blood stage Plasmodium falciparum ,using a nano luciferase reporter read-out” (2022).

Structures are written as SMILES. The campaign covered roughly 150,000 compounds. About 540 (0.36%) showed an effect of 50% or more. The list shows a part of the results.

The subject of this experiment is Plasmodium falciparum. Briefly: Primary screen in NF54 nanoGlo assay, in single point, at 2uM, 72h; a lower Z score goes with more inhibition. The experiment is classed as functional, Erythrocyte. To be noted: timepoint 72 hour.
As to `O=C(Cn1cccnc1=O)NCc1ccc2c(c1)OCO2`, the % Inhibition (commonly the relative decrease from the control value, in per cent) is -4% and the Z score was determined as 0.5.
In the same order, the values of `Cc1ccc(-c2nnc3c4ccc(Cl)cc4nc(N4CCN(C(=O)C5CCC5)[C@@H](C)C4)n23)cc1` are -11% and 1.66.
In the case of `CNC(=O)CCC(C)(C)Nc1nccnc1OC`, the “% Inhibition” value amounted to 5% and the Z score is recorded as -0.51.
In the same order, the values of `CC(C)(C)C1CCC2(CC1)[C@H](C(=O)c1ccc(F)cc1)C2(C#N)C#N` (stereo partly drawn) are -14% and 2.04.
Turning to `N#Cc1ccc(OCCN(CCOc2ccc(C#N)cc2)CCn2cccn2)cc1`, the “% Inhibition” value is listed as -17% and the Z score stood at 1.54.
On the same counts, the results for `Cc1cc(C)n2nc(C(=O)Nc3c(C)cccc3C)c(-c3ccc(C)c(S(=O)(=O)N4CCCC4)c3)c2n1` are -11% and 1.07.
Turning to `COc1cc(OC)cc(C2(O)CCN(Cc3ccon3)CC2)c1`, the “% Inhibition” value is listed as -13% and the Z score was determined as 1.8.
In the case of `CC(=O)N(CCN1CCOCC1)CC(=O)N1CCCN(c2ccc(-c3ccccc3)nn2)CC1`, the “% Inhibition” value is recorded as -5% and the Z score was found to be 0.86.
Turning to `C#CCOC[C@@H](O)CN(Cc1ccc(F)cc1)Cc1ccc(F)cc1F`, the “% Inhibition” value was -10% and the Z score was 1.47.
In the same order, the values of `C[C@H](NS(=O)(=O)N1CCCCC1)c1cnn(C)c1` are -13% and 1.16.
In the same order, the values of `NC(=O)[C@H]1CC=CC[C@@H]1NC(=O)c1ccccc1-n1cnnc1` are -1% and 0.1.
On the same counts, the results for `CN(CC(=O)NC(=O)NC1CCCC1)Cc1ccco1` are -2% and 0.37.
Regarding `Cc1oc(-c2ccccc2)nc1CN(Cc1ccccn1)C(C)C`, the “% Inhibition” value is recorded as -4% and the Z score was determined as 0.73.
Consider `Cc1ccc(Cn2c(=O)c(C(=O)N[C@@H](C)c3ccccc3)nn(-c3cccc(F)c3)c2=O)cc1`, for which the “% Inhibition” value is -2% and the Z score came to 0.27.
In the same order, the values of `COc1ccc(CN2C(=O)N[C@@H](CC(=O)Nc3nc(C)cs3)C2=O)cc1` are 2% and -0.3.
In the same order, the values of `COc1ccc(OCCNc2ccc(C(=O)NC(C)C)nn2)cc1` are 1% and -0.23.
As to `Nc1ccc(S(=O)(=O)C(F)F)cc1`, the “% Inhibition” value is -6% and the Z score was found to be 0.53.
Take `C[C@]1(c2noc(C3CCOCC3)n2)CCCN(C(=O)CC2CCCC2)C1`: the “% Inhibition” value is -1% and the Z score was determined as 0.21.
In the same order, the values of `CC(C)(O)CC(=O)N(Cc1ccncc1)C1CC1` are -12% and 1.24.
`N[C@@H]1CC[C@@H]1NC(=O)c1nc(N2CCCC2)nc2c1CCCC2`: the “% Inhibition” value was found to be 0% and the Z score was -0.03.
On the same counts, the results for `Cc1csc(NC(=O)CCc2ccc(S(=O)(=O)N3CCCC3)cc2)n1` are -11% and 1.43.
On the same counts, the results for `COc1ccc(C(=O)N2CC[C@H](n3c(-c4ccc(OC)cc4)nc4cccnc43)C2)cc1` are -12% and 1.82.
In the same order, the values of `O=c1c2c(cnn1CN1CCN(c3ccccc3)CC1)CCCC2` are -21% and 2.62.
With `CC(C)(C)OC(=O)N1CCC[C@@H]1CCNC(=O)CCc1ccsc1`, the “% Inhibition” value turned out to be 2% and the Z score was -0.23.
On the same counts, the results for `O=C(NC[C@H]1CCCCO1)c1coc(COc2ccc(F)cc2)n1` are -13% and 1.22.
As to `COc1ccccc1CC(=O)N[C@@H](Cn1cncn1)C(C)C`, the “% Inhibition” value turned out to be 9% and the Z score is listed as -1.24.
`COCCN1C[C@]2(CCCN(C(=O)c3nc(C)c[nH]3)C2)CCC1=O`: the “% Inhibition” value is given as -16% and the Z score is recorded as 1.48.
On to `COc1ccc(CCNC(=O)C[C@H]2C(=O)NCCN2C2CCCC2)cc1OC`, for which the “% Inhibition” value was -11% and the Z score was 1.58.
In the same order, the values of `CC#CCCNC(=O)N1CCCC2CN(C(=O)OC(C)(C)C)CCC21` (stereo not drawn) are -12% and 2.31.
Consider `OCCn1nc(-c2ccncc2)nc1CN1CCN(c2ncccn2)CC1`, for which the “% Inhibition” value stood at 0% and the Z score was -0.06.
On the same counts, the results for `O=C(NC1CCCCCCC1)C1CCN(S(=O)(=O)c2ccc3c(c2)CCCN3C(=O)C2CCC2)CC1` are -9% and 1.68.
Take `Cc1nc(NC(=O)c2scnc2C)n(C)n1`: the “% Inhibition” value was -4% and the Z score stood at 0.34.
In the same order, the values of `O=C(CCc1cc2n(n1)CCNC2)N1CCC(Nc2ccccn2)CC1` are -4% and 0.81.
Take `CN(Cc1csnn1)[C@H]1CS(=O)(=O)c2ccc(Cl)cc21`: the “% Inhibition” value is on record as -17% and the Z score was 1.88.
In the same order, the values of `Cc1cccc(OC2CCN(C(=O)c3nc4cccc(C)n4c3F)CC2)c1` are -4% and 0.81.
Regarding `CCCn1ccnc1-c1c(-c2ccccc2)ncn1CCS(C)(=O)=O`, the “% Inhibition” value is reported as -1% and the Z score came to 0.08.
In the case of `COC(=O)[C@H]1CN(c2nccc(OC)n2)C[C@@H](C)O1`, the “% Inhibition” value amounted to 5% and the Z score is -0.86.
On the same counts, the results for `Cc1cnc(CN2CC3(CCC2=O)CCN(C(=O)Cc2ccccc2)CC3)cn1` are -13% and 1.81.
On the same counts, the results for `CCCCNc1c2c(nc3ccccc13)CC(C)(C)C[C@@H]2O` are -13% and 1.18.
In the case of `COC1CCN(C[C@]2(O)CCCN(CC3CCCCC3)C2=O)CC1`, the “% Inhibition” value is -5% and the Z score turned out to be 0.69.
In the same order, the values of `CCN(CC)C(=O)Cn1cc(C(=O)NCCC(c2ccccc2)c2ccccc2)nn1` are -8% and 1.52.
With `CCc1noc(COCC(=O)N2CCOc3ncccc3C2)n1`, the “% Inhibition” value is 7% and the Z score is listed as -1.18.
On the same counts, the results for `O=C(Nc1ccc(F)cc1)c1cc(-c2ccccc2Cl)nc2cc(-c3ccccc3)nn12` are 1% and -0.13.
For the compound `Cc1ccc(OCC(=O)Nc2ccc(N3CCOCC3)nc2)cc1`, the “% Inhibition” value was determined as 11% and the Z score was -1.45.
Turning to `O=C(c1c(-c2ccccc2)cc(=O)n2c1CCC2)N1CCCC1`, the “% Inhibition” value is on record as -6% and the Z score is recorded as 0.72.
In the same order, the values of `Cc1ccc(CNCc2c(C(=O)N3CCCCCCC3)nc3ccc(Cl)cn23)o1` are -6% and 0.78.
`CCCN(CCO)C(=O)Nc1ccc(Cl)cc1C`: the “% Inhibition” value is reported as -5% and the Z score is given as 0.55.
For the compound `CCCCCNC(=O)c1snc(-c2ccncc2)c1N`, the “% Inhibition” value is recorded as -14% and the Z score is 1.32.
In the same order, the values of `CC(=O)c1sc(NCc2ccco2)nc1C` are -13% and 1.1.
With `CC(C)COc1ccc(NC(=O)c2csnn2)cn1`, the “% Inhibition” value came to 3% and the Z score is -0.65.
In the same order, the values of `O=S(=O)(C[C@H]1C[C@H]2CCCC[C@H]21)NCc1nc(C2CC2)no1` are -5% and 0.75.
On the same counts, the results for `O=C(c1ccnc(-n2cnnc2)c1)N1CCC([C@H](O)c2cccs2)CC1` are -2% and 0.26.
`CC(=O)N[C@@H]1CN(C(=O)NCc2ccn(C(C)C)n2)C[C@H]1c1ccnn1C`: the “% Inhibition” value is recorded as -10% and the Z score was found to be 1.6.
On the same counts, the results for `NC(=O)[C@]1(O)CCCN(Cc2nccn2C(F)F)C1` are 0% and -0.03.
In the same order, the values of `O=C(NCc1ccccc1)C1=NCCCN1` are -1% and 0.14.
On the same counts, the results for `CCOc1ccc(-c2cc3c(=O)n(CCC(=O)N4CCCC4)ccn3n2)cc1` are 35% and -4.66.
On to `C=CCN(CCC(=O)NC(N)=O)c1nc2c(s1)CCCC2`, for which the “% Inhibition” value was -25% and the Z score was 2.26.
For the compound `O=C(ONc1ccccc1)C1=CC=CN=CN1`, the “% Inhibition” value is given as 2% and the Z score is -0.34.
In the case of `Brc1ccc(-c2nnc(CN3CCc4ccccc4C3)o2)cc1`, the “% Inhibition” value came out at 3% and the Z score is listed as -0.32.
In the same order, the values of `O=C(c1ccc(CN2CCc3ccccc3C2)cc1)N1CCN2CCC[C@H]2C1` are -3% and 0.64.
For the compound `OCC[C@H](NCc1ncccc1Cl)c1ccc(Cl)cc1`, the “% Inhibition” value was found to be 8% and the Z score is -1.28.
In the case of `C[C@@]12C=C[C@]3(O1)C(C(=O)NC1CCCCC1)N(C1CCCCCC1)C(=O)[C@@H]3C2C(=O)Nc1ccc(F)cc1` (stereo partly drawn), the “% Inhibition” value stood at 7% and the Z score was -1.33.
In the same order, the values of `Cc1cncc(C(=O)OCc2ncc(C(C)(C)C)o2)c1O` are -7% and 0.6.
On the same counts, the results for `CC(=O)N1CCC(N(C)Cc2sc3ccccc3c2Cl)CC1` are -7% and 1.43.
`Cc1c(NC(=O)[C@@H]2CCCC[C@@H]2C(=O)N2CCCC2)c(N2CCCC2)nn1C`: the “% Inhibition” value was -9% and the Z score was 1.66.
Consider `Cc1ccc(NC(=O)[C@@H]2CCCN2S(=O)(=O)c2ccc3c(c2)NC(=O)CO3)c(C)c1`, for which the “% Inhibition” value was -4% and the Z score is on record as 0.61.
For `CCN(Cc1nc(C(C)C)no1)C(=O)Cc1cnc2c(C)cccn12`, the “% Inhibition” value is -5% and the Z score was found to be 0.82.
Take `C[C@@H](Cc1ccsc1)NC(=O)CN1CCCCCC1`: the “% Inhibition” value is listed as 10% and the Z score is on record as -1.55.
On to `O=C(COc1ccc2ccccc2c1)N1CC(OC[C@H]2CCOC2)C1`, for which the “% Inhibition” value is 25% and the Z score is given as -3.24.
As for `CC(C)Oc1ccc(CN2[C@@H](CO)CN(C)C(=O)[C@@H]2C)cc1`, the “% Inhibition” value is listed as -10% and the Z score came out at 1.32.
In the same order, the values of `O=C1c2ccc(Oc3cccc(Oc4ccc5c(c4)C(=O)N(c4ccccn4)C5=O)c3)cc2C(=O)N1c1ccccn1` are -10% and 1.98.
On the same counts, the results for `CC(=O)N1CCC[C@H](c2nc(-c3cn4ccccc4n3)no2)C1` are -8% and 1.19.
In the same order, the values of `CCn1nnnc1NC(=O)COC[C@H]1CCCO1` are -12% and 2.12.
Take `CC1CN(C(=O)NCC2CNCCO2)C2CCCCC12` (stereo not drawn): the “% Inhibition” value is -16% and the Z score is 2.34.
In the same order, the values of `CCc1ccccc1OCCc1c(C)n[nH]c1C` are -11% and 1.7.
Consider `O=C(c1ccccc1)c1cc(Cl)ccc1NC(=O)c1c(O)nc2ccc(Cl)cc2c1-c1ccccc1`, for which the “% Inhibition” value is -14% and the Z score is given as 1.24.
With `C1=CC[C@@H](CN2CCc3nnc(-c4ccccc4)n3CC2)CC1`, the “% Inhibition” value was -9% and the Z score amounted to 1.19.
In the case of `CCC(C)C1NC2(CCN(S(=O)(=O)c3ccc(C)cc3)CC2)N(Cc2cccc(C(F)(F)F)c2)C1=O` (stereo not drawn), the “% Inhibition” value is recorded as -21% and the Z score came out at 3.11.
As for `Cc1ccsc1-c1nccn1CCc1n[nH]c(=O)[nH]1`, the “% Inhibition” value was -17% and the Z score was determined as 1.54.
In the same order, the values of `Cc1ccc(NC(Nc2ccc(C)cc2)=C(NC(=O)c2ccccc2)C(=O)N2CCCCC2)cc1` are 7% and -0.98.
In the same order, the values of `COCCN1C(=O)c2ccc(C(=O)Nc3nnc(C4CC4)s3)cc2C1=O` are -17% and 2.07.
With `CCc1ccc(CN[C@@H](CC)CO)cc1`, the “% Inhibition” value is -4% and the Z score was found to be 0.61.
Take `CCc1ncc2c(n1)CN(C(=O)c1csc3c1CCCC3)C2`: the “% Inhibition” value is recorded as -6% and the Z score is given as 0.85.
With `C[N+](Cc1coc(-c2ccccc2)n1)(Cc1coc(-c2ccccc2)n1)Cc1coc(-c2ccccc2)n1`, the “% Inhibition” value is on record as 7% and the Z score is -1.03.
